# Whole data set: some 33,000 sequences, median “E-score (-0.5 to 0.5)” near -0.041, cut for the highest 2% near 0.37. Some of the results follow.
# Molecular target: T1, Ecm22 (UniProt Q05958)
# T1 sequence: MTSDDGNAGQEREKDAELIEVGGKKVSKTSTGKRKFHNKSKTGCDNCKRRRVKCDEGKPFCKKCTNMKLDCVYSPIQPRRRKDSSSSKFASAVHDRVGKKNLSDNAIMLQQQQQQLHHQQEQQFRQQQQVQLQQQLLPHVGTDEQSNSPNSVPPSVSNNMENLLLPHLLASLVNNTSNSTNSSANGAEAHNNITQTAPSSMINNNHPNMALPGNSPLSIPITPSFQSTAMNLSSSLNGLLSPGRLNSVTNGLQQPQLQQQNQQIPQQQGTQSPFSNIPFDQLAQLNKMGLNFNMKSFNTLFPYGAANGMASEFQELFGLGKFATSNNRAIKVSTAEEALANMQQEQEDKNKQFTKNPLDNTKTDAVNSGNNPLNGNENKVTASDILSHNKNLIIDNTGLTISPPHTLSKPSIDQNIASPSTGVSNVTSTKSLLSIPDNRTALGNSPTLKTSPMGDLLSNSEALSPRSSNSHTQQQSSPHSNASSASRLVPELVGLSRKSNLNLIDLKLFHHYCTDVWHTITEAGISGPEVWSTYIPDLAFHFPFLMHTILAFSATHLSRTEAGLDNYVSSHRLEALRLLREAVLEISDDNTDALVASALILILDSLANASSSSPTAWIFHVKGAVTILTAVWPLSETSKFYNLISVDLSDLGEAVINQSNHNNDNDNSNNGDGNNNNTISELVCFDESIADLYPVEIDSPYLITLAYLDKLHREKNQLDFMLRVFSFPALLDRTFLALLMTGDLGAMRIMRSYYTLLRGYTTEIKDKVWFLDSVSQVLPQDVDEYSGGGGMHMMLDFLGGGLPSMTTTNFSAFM
# Experiment: PBM E-score (8-mer binding enrichment) (E-score (-0.5 to 0.5)); higher = stronger / more preferred TF binding; most listed sequences are background and not binding sites
# Details: protein concentration: 200 nM; construct: GST-full length
# Summary of the method: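 PURExpress in vitro transcription/translation supplied GST-tagged yeast transcription factors, either full-length or DNA-binding domain. Applied at about 100-200 nM to universal all-10-mer Agilent arrays double-stranded by primer extension, the bound protein was detected with fluorescent anti-GST. E-scores, modified Wilcoxon-Mann-Whitney statistics, were given by the Universal PBM Analysis Suite to ungapped eight-base words pooled with their reverse complements after masliner normalisation.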
row,Sequence,PBM E-score
1,AAGAACGA,0.453
2,CACTTCTA,-0.213
3,AAAGGCTG,-0.243
4,CATCGGGG,-0.166
5,ACGTCAGG,-0.167
6,TCGGTACA,0.159
7,CGCACTTA,-0.0668
8,ATGTAGTC,-0.0995
9,GGTAACCA,-0.223
10,CGGAGTAC,0.167
11,CACTACAG,-0.0957
12,TGATCCCA,-0.339
13,GCTTTGAA,0.0443
14,ATTGTGGA,-0.0767
15,CGTGGAAC,0.171
16,ACGTGAAC,0.116
17,CAGATGCC,-0.0845
18,CCATTCAG,-0.372
19,CGCGGGCC,-0.0695
20,GACGGGGA,0.0522
21,CCTCAAAG,-0.333
22,AGCAGTGA,-0.0929
23,AGGGTCGA,-0.0633
24,CCGTTTAG,0.433
25,AACTGTCT,-0.127

row,Sequence,PBM E-score
1,ATGGTGGA,-0.233
2,GCTGGTCA,-0.107
3,ATATGCAG,-0.189
4,AAGCGTTA,0.00424
5,ATTTAGAG,-0.071
6,GCCCTTCC,-0.238
7,CAATTTGC,-0.138
8,ACCTCAGT,0.0481
9,AGTGAGTC,-0.183
10,CCCCCAAC,-0.333
11,GTAGCAGA,0.0392
12,ACCCCGCG,0.0229
13,TAGAACCA,0.00176
14,AAGGAAGC,-0.234
15,GACGCCAC,-0.0474
16,ATCGGACC,0.132
17,GTGCTGGA,-0.0724
18,GAGGTTTA,0.00322
19,GTAATAAC,0.0435
20,AGAGGTGC,-0.0602
21,CAGGCACA,-0.345
22,CTAGATGA,-0.0373
23,GCGACCGC,0.123
24,ACGCTAAC,-0.0173
25,ATGCCGGC,-0.133

row,Sequence,PBM E-score
1,GCAAGATA,0.0593
2,CCTGTGGA,-0.334
3,CTGCCGAC,0.0606
4,AAATCAGA,0.0265
5,ACATAAAA,0.0758
6,CCCCGGAA,-0.249
7,CAACCTGG,-0.0624
8,CCTACCCC,-0.0988
9,ATCTTTCG,0.097
10,AACAGTGG,-0.169
11,GATAGTAC,0.0708
12,ACGTTTGC,0.0656
13,ACAGACAT,0.0546
14,GTCTTTCA,0.0144
15,ACCAATCA,0.0404
16,AGGGCCCG,-0.114
17,TACCATGA,-0.159
18,CTGATAAG,-0.216
19,ACACTTTA,0.0464
20,CAATTAGC,-0.15
21,CCGTCATA,0.0387
22,ACGTCGAT,0.0718
23,ACTAACTC,-0.236
24,AGACGGGA,-0.0848
25,ATTCTCCA,-0.054

row,Sequence,PBM E-score
1,ACTTGTCT,-0.0912
2,CCACGCCC,-0.205
3,CCCCCACA,-0.362
4,AAGCGGAC,-0.0617
5,GACCGCGC,0.0551
6,ATCGGGAG,-0.0469
7,ATTCGCTG,0.114
8,AACCGCTT,-0.0907
9,CGAGAAAC,0.219
10,CTTCACAA,-0.157
11,ATCGACAC,0.0894
12,ACGGTGAC,-0.0293
13,CCACGCTC,-0.119
14,ACAATGAG,-0.111
15,GCGAAGTA,0.112
16,ACCGGGGC,-0.124
17,CACGGTGG,-0.0182
18,AGACTAAC,-0.0838
19,ACCGTAAC,0.231
20,AACCAGAT,0.0941
21,CGGGTCTC,0.00746
22,CGGACCAA,-0.0431
23,GGGAGTTA,-0.144
24,CGCGAGCA,0.121
25,ATAGAATG,-0.0982

row,Sequence,PBM E-score
1,CCCTAAAC,0.0362
2,TGCTCGAA,-0.0944
3,GTTTCTGA,0.0514
4,GGGGCAAC,-0.0958
5,AGTTTTCG,0.0929
6,ATACTTAG,-0.0392
7,GGCCTGCA,-0.0917
8,CCCTCATA,-0.201
9,CTAAACGC,0.284
10,ATTTCTGA,-0.286
11,TACCACCA,-0.196
12,GCATGGGC,-0.168
13,AAGCCCCC,-0.226
14,TATAGATA,0.141
15,CTGGGTCA,-0.172
16,ACCTATAC,0.28
17,ATTCAACG,0.211
18,ATTGTAAA,0.17
19,ATGGACTC,-0.0123
20,AGGGGCTA,-0.0887
21,CGTCACTC,0.0237
22,TCACGCAA,-0.0645
23,CGTGCCAA,-0.0558
24,AGTGGTGG,-0.151
25,GGCGGCAC,0.0476

row,Sequence,PBM E-score
1,CCCTGTTA,-0.117
2,GAGCTGTA,-0.219
3,CATGTGCG,-0.145
4,AAATAAAT,0.149
5,AATTCGCT,0.173
6,ATGCAGTG,-0.0612
7,AGCGTGAG,-0.196
8,ACCTTCCA,-0.0381
9,AGGGCTTA,-0.14
10,ACGACCTA,0.384
11,AAATACAG,-0.131
12,GGACTCCC,-0.247
13,GATATGAC,0.0489
14,AATGTGGT,-0.131
15,CGGACTCA,-0.209
16,AATAACCC,0.076
17,TAACAAGA,-0.224
18,AGCGCTAA,0.0597
19,CTCTATAC,0.319
20,ATTAGTGG,-0.172
21,AAGTTAAG,-0.298
22,ACCGTTTA,0.432
23,CAATCCCC,-0.107
24,AGACCTAA,-0.13
25,TAATACGA,0.437

row,Sequence,PBM E-score
1,TCTAGAAA,-0.0993
2,AGTCTACA,-0.0898
3,CAACTGTG,-0.1
4,AGGGGGCG,-0.117
5,CATTAGGC,-0.213
6,CTCCAACA,-0.147
7,CATACGAC,0.451
8,ATACTCAA,0.0434
9,AGTTCAAC,-0.0854
10,CATGCCGA,0.129
11,CATTAGGA,-0.13
12,GGTCGTAC,0.482
13,GGGTGGAA,-0.284
14,GAAGACTC,-0.17
15,TATTAAAA,0.0848
16,ACCGCGGT,0.136
17,ATATATCC,0.0949
18,CCCTTCCG,-0.218
19,AGGTAGAT,0.0145
20,ATATCGGC,0.0295
21,CTATCCTC,0.115
22,TACCAGTA,0.0628
